± gives the standard deviation of the averaged measurements. Some of the results follow.

This is an account of results in the supplement of paper PMC11417369.

In the experiment the test system is PfAP2-EXP AP2 domain (GST-tagged). Nature of the experiment: gcPBM binding intensity (ln(normalized median fluorescence intensity)); higher = stronger DNA binding. The gist of the method: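 Binding intensity is the highest Masliner-normalised natural-log median intensity over replicate spots in either probe orientation. To obtain it, GST-tagged P. falciparum DNA-binding domains made in E. coli were incubated for 1 h on an Agilent 4 × 180k array of primer-extended double-stranded 36-bp intergenic genomic probes plus negative controls. Detection used Alexa488 anti-GST antibody with scanning at 488 nm.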
Consider “ATTAATGATTTTTGTTGTACATTATTAATTTACATT [XGTACX_site544]”, for which the “gcPBM binding intensity (ln)” value was 8.69 ± 0.35. The same measure for “ATGCGTATACTAAGAACACACAAGTTACTTGGTGTT [CACACA_site1625]”: 8.56 ± 0.31.

“TATTTTATATTTCATTTGTTATTTTTCTTGGTTCTA [CACACA_negctrl_site33]”: the “gcPBM binding intensity (ln)” value was 8.63 ± 0.57. The same measure for “CATACATACATACATACACACATACATATGTATTTA [CACACA_site5384]”: 9.26 ± 0.25. The same measure for “CAACACTTTCAAAAATGTACGTACAAATGTATTTTA [XGTACX_site6713]”: 8.65 ± 0.32. Under “ACAAAATAAAGACACACACACAAACACAAAAAAATA [CACACA_site7568]” stands 8.51 ± 0.72; under “AGTTTCCATATGAGGTGTACATATATAATTTATTAT [XGTACX_site2369]”, 8.72 ± 0.4; under “TTATATGAAAAAATATGTACGTATAATGAGAAATAT [XGTACX_site8987]”, 9.01 ± 0.39. As for “AAATAGATAAACTAAACACACAAAAAAAAAAAAAAT [CACACA_site1179]”, the “gcPBM binding intensity (ln)” value was 8.41 ± 0.54. Under “AAAATAACGAGTCAAACACACATATTTATATTTATA [CACACA_site7050]” stands 8.32 ± 0.49; under “TAATATAACTACATAACACACGAAAATATATGAATC [CACACA_site3628]”, 9.03 ± 0.31. As for “TCATTAATCAGGTATGCATGCATAACTATTAAAAAT [TGCATGCA_site90]”, the “gcPBM binding intensity (ln)” value was determined as 9.75 ± 0.4.

For “GTTATAAATGCATATACACACATACGTACATACATA [CACACA_site7655]”, the “gcPBM binding intensity (ln)” value is 8.79 ± 0.23. The same measure for “TCTTTTTTTTTTATTTGTACTTATTTTTTTCAAAAA [XGTACX_site3403]”: 8.76 ± 0.33. The same measure for “AAAAAAAAAAAAAAAACACACATTTCTTTTTCATAT [CACACA_site11]”: 8.71 ± 0.17; for “AATAATAATATATGTAGTACACATTTCCATTATGTT [XGTACX_site3708]”: 8.65 ± 0.29; for “TTAATTATATATAAAAGTACTTATTTTTCCATATAA [XGTACX_site3033]”: 8.14 ± 0.42. Under “TAATAGGAAATTATAGGTACACATACAAATAAATAA [XGTACX_site3587]” stands 8.72 ± 0.41; under “ATGTAGATATATATATGTACTAATTAGTAGTTTACG [XGTACX_site6275]”, 8.91 ± 0.4. On to “AATGGTACATGATACACACACGCACATATATATATT [CACACA_site3425]”, for which the “gcPBM binding intensity (ln)” value is 8.77 ± 0.46. The same measure for “ACATAAATAATAAAAACACACATATGTACAGATATA [CACACA_site5112]”: 8.81 ± 0.36. As to “AGAAAAAATAAAAATAGTACTCAAAAAATTATGAAT [XGTACX_site4908]”, the “gcPBM binding intensity (ln)” value was 8.48 ± 0.3. The same measure for “AGAAAAAAAAAACACACACACACACCCTCAATATAA [CACACA_site39]”: 8.64 ± 0.49. The same measure for ATATTAAAAAGAAGTGTGCGCAAAACATTAACTTGA: 9.14 ± 0.53; for “ATTTATATATTGCCCACACACATGTGATTATTTATA [CACACA_site1714]”: 9.05 ± 0.48. The same measure for “TAAATAAACCTGACTTGTACATGTAAAATAAATATA [XGTACX_site1667]”: 8.9 ± 0.42; for “AATGGATGGTCCAAATGTACATATATATATATATAT [XGTACX_site4800]”: 10.1 ± 0.41; for “GCATAAATCAAACACACACACATATATATATATATA [CACACA_site2422]”: 10.2 ± 0.21. Take “AATGAATATAGTACTGAATGTAATTTAAGGTTTTCC [CACACA_negctrl_site1548]”: the “gcPBM binding intensity (ln)” value stood at 8.37 ± 0.32. The same measure for TATAATGGATGCTAGCTGCACTAATAAGCAAAAATA: 8.73 ± 0.28; for “GATGATATATATTAGCGTACATGTATATATACCATT [XGTACX_site6404]”: 8.79 ± 0.38; for “AAAATTTCAAATAACACACACTAATATATATCTGTA [CACACA_site4904]”: 8.28 ± 0.59. Under “TAAATGAGAAGGACTGCACACTAAAATGGAAGGAGA [CACACA_site8449]” stands 9.03 ± 0.49. The same measure for “TATTTGTATATATGTGTGCACGTATAATCCATTAAA [GTGCAC_site9569]”: 8.95 ± 0.18; for “TCCTTACCTATTAAAGCATGCTCGAATATATATTTT [TGCATGCA_site53]”: 9.04 ± 0.45; for “ATATATATATCATATTGTACATACTTGTATTTATAT [XGTACX_site2432]”: 9.23 ± 0.028. With “GTGGACGAAATAGTTGTAAATTTATGTGCAAACCTC [XGTACX_negctrl_site564]”, the “gcPBM binding intensity (ln)” value was determined as 8.87 ± 0.39. Under “AACAAAATAAATGTATGTACATATATATATATATAT [XGTACX_site7974]” stands 10.1 ± 0.39; under “TATATTAAATATTACACACATACATTTAGTGTCAAA [CACACA_site1990]”, 8.35 ± 0.37; under “TGGGAGCACAGACACACACACACACCGATATATATA [CACACA_site8001]”, 8.76 ± 0.29. Under “ACTTATAAAATAACATGTACAAATATTTATTATATA [XGTACX_site133]” stands 8.37 ± 0.28. Under “TATGGTAACATATGCTGTACAATATAATATGTTTAA [XGTACX_site1601]” stands 8.47 ± 0.32. As for “AAAAAAAAAAGGTGTACATGCAAAATAAATTCTTAA [TGCATGCA_site556]”, the “gcPBM binding intensity (ln)” value amounted to 9.02 ± 0.35. The same measure for “AAAAAAAAAAAACACACACACACACCGACAAAATAT [CACACA_site8411]”: 8.81 ± 0.82.
